# Source: the supplement of paper PMC12423691
# Some of the results follow. Binding of human transcription factors and regulators to the viral nucleoprotein by AlphaScreen, crude cell-free proteins, amounts not normalised, one pass. Fold of the Venus control; higher = more signal. No active / inactive call. Single-pass screen; sequences are the whole Swiss-Prot entries looked up by name.
# B1: USF2, Q15853 (protein)
# chain: MDMLDPGLDPAASATAAAAASHDKGPEAEEGVELQEGGDGPGAEEQTAVAITSVQQAAFGDHNIQYQFRTETNGGQVTYRVVQVTDGQLDGQGDTAGAVSVVSTAAFAGGQQAVTQVGVDGAAQRPGPAAASVPPGPAAPFPLAVIQNPFSNGGSPAAEAVSGEARFAYFPASSVGDTTAVSVQTTDQSLQAGGQFYVMMTPQDVLQTGTQRTIAPRTHPYSPKIDGTRTPRDERRRAQHNEVERRRRDKINNWIVQLSKIIPDCNADNSKTGASKGGILSKACDYIRELRQTNQRMQETFKEAERLQMDNELLRQQIEELKNENALLRAQLQQHNLEMVGEGTRQ
# B2: FOXP2, O15409 (protein)
# chain: MMQESATETISNSSMNQNGMSTLSSQLDAGSRDGRSSGDTSSEVSTVELLHLQQQQALQAARQLLLQQQTSGLKSPKSSDKQRPLQVPVSVAMMTPQVITPQQMQQILQQQVLSPQQLQALLQQQQAVMLQQQQLQEFYKKQQEQLHLQLLQQQQQQQQQQQQQQQQQQQQQQQQQQQQQQQQQQQQQQQQHPGKQAKEQQQQQQQQQQLAAQQLVFQQQLLQMQQLQQQQHLLSLQRQGLISIPPGQAALPVQSLPQAGLSPAEIQQLWKEVTGVHSMEDNGIKHGGLDLTTNNSSSTTSSNTSKASPPITHHSIVNGQSSVLSARRDSSSHEETGASHTLYGHGVCKWPGCESICEDFGQFLKHLNNEHALDDRSTAQCRVQMQVVQQLEIQLSKERERLQAMMTHLHMRPSEPKPSPKPLNLVSSVTMSKNMLETSPQSLPQTPTTPTAPVTPITQGPSVITPASVPNVGAIRRRHSDKYNIPMSSEIAPNYEFYKNADVRPPFTYATLIRQAIMESSDRQLTLNEIYSWFTRTFAYFRRNAATWKNAVRHNLSLHKCFVRVENVKGAVWTVDEVEYQKRRSQKITGSPTLVKNIPTSLGYGAALNASLQAALAESSLPLLSNPGLINNASSGLLQAVHEDLNGSLDHIDSNGNSSPGCSPQPHIHSIHVKEEPVIAEDEDCPMSLVTTANHSPELEDDREIEEEPLSEDLE
# B3: SNAPC2, Q13487 (protein)
# chain: MKPPPRRRAAPARYLGEVTGPATWSAREKRQLVRLLQARQGQPEPDATELARELRGRSEAEIRVFLQQLKGRVAREAIQKVHPGGLQGPRRREAQPPAPIEVWTDLAEKITGPLEEALAVAFSQVLTIAATEPVTLLHSKPPKPTQARGKPLLLSAPGGQEDPAPEIPSSAPAAPSSAPRTPDPAPEKPSESSAGPSTEEDFAVDFEKIYKYLSSVSRSGRSPELSAAESAVVLDLLMSLPEELPLLPCTALVEHMTETYLRLTAPQPIPAGGSLGPAAEGDGAGSKAPEETPPATEKAEHSELKSPWQAAGICPLNPFLVPLELLGRAATPAR
# B4: EDA2R, Q9HAV5 (protein)
# chain: MDCQENEYWDQWGRCVTCQRCGPGQELSKDCGYGEGGDAYCTACPPRRYKSSWGHHRCQSCITCAVINRVQKVNCTATSNAVCGDCLPRFYRKTRIGGLQDQECIPCTKQTPTSEVQCAFQLSLVEADTPTVPPQEATLVALVSSLLVVFTLAFLGLFFLYCKQFFNRHCQRGGLLQFEADKTAKEESLFPVPPSKETSAESQVSENIFQTQPLNPILEDDCSSTSGFPTQESFTMASCTSESHSHWVHSPIECTELDLQKFSSSASYTGAETLGGNTVESTGDRLELNVPFEVPSP
# B5: PARK2, O60260 (protein)
# chain: MIVFVRFNSSHGFPVEVDSDTSIFQLKEVVAKRQGVPADQLRVIFAGKELRNDWTVQNCDLDQQSIVHIVQRPWRKGQEMNATGGDDPRNAAGGCEREPQSLTRVDLSSSVLPGDSVGLAVILHTDSRKDSPPAGSPAGRSIYNSFYVYCKGPCQRVQPGKLRVQCSTCRQATLTLTQGPSCWDDVLIPNRMSGECQSPHCPGTSAEFFFKCGAHPTSDKETSVALHLIATNSRNITCITCTDVRSPVLVFQCNSRHVICLDCFHLYCVTRLNDRQFVHDPQLGYSLPCVAGCPNSLIKELHHFRILGEEQYNRYQQYGAEECVLQMGGVLCPRPGCGAGLLPEPDQRKVTCEGGNGLGCGFAFCRECKEAYHEGECSAVFEASGTTTQAYRVDERAAEQARWEAASKETIKKTTKPCPRCHVPVEKNGGCMHMKCPQPQCRLEWCWNCGCEWNRVCMGDHWFDV
# B6: IFI16, Q16666 (protein)
# chain: MGKKYKNIVLLKGLEVINDYHFRMVKSLLSNDLKLNLKMREEYDKIQIADLMEEKFRGDAGLGKLIKIFEDIPTLEDLAETLKKEKLKVKGPALSRKRKKEVDATSPAPSTSSTVKTEGAEATPGAQKRKKSTKEKAGPKGSKVSEEQTQPPSPAGAGMSTAMGRSPSPKTSLSAPPNSSSTENPKTVAKCQVTPRRNVLQKRPVIVKVLSTTKPFEYETPEMEKKIMFHATVATQTQFFHVKVLNTSLKEKFNGKKIIIISDYLEYDSLLEVNEESTVSEAGPNQTFEVPNKIINRAKETLKIDILHKQASGNIVYGVFMLHKKTVNQKTTIYEIQDDRGKMDVVGTGQCHNIPCEEGDKLQLFCFRLRKKNQMSKLISEMHSFIQIKKKTNPRNNDPKSMKLPQEQRQLPYPSEASTTFPESHLRTPQMPPTTPSSSFFTKKSEDTISKMNDFMRMQILKEGSHFPGPFMTSIGPAESHPHTPQMPPSTPSSSFLTTKSEDTISKMNDFMRMQILKEGSHFPGPFMTSIGPAESHPHTPQMPPSTPSSSFLTTLKPRLKTEPEEVSIEDSAQSDLKEVMVLNATESFVYEPKEQKKMFHATVATENEVFRVKVFNIDLKEKFTPKKIIAIANYVCRNGFLEVYPFTLVADVNADRNMEIPKGLIRSASVTPKINQLCSQTKGSFVNGVFEVHKKNVRGEFTYYEIQDNTGKMEVVVHGRLTTINCEEGDKLKLTCFELAPKSGNTGELRSVIHSHIKVIKTRKNKKDILNPDSSMETSPDFFF
# B7: NFE2L1, Q14494 (protein)
# chain: MLSLKKYLTEGLLQFTILLSLIGVRVDVDTYLTSQLPPLREIILGPSSAYTQTQFHNLRNTLDGYGIHPKSIDLDNYFTARRLLSQVRALDRFQVPTTEVNAWLVHRDPEGSVSGSQPNSGLALESSSGLQDVTGPDNGVRESETEQGFGEDLEDLGAVAPPVSGDLTKEDIDLIDILWRQDIDLGAGREVFDYSHRQKEQDVEKELRDGGEQDTWAGEGAEALARNLLVDGETGESFPAQVPSGEDQTALSLEECLRLLEATCPFGENAEFPADISSITEAVPSESEPPALQNNLLSPLLTGTESPFDLEQQWQDLMSIMEMQAMEVNTSASEILYSAPPGDPLSTNYSLAPNTPINQNVSLHQASLGGCSQDFLLFSPEVESLPVASSSTLLPLAPSNSTSLNSTFGSTNLTGLFFPPQLNGTANDTAGPELPDPLGGLLDEAMLDEISLMDLAIEEGFNPVQASQLEEEFDSDSGLSLDSSHSPSSLSSSEGSSSSSSSSSSSSSSASSSASSSFSEEGAVGYSSDSETLDLEEAEGAVGYQPEYSKFCRMSYQDPAQLSCLPYLEHVGHNHTYNMAPSALDSADLPPPSALKKGSKEKQADFLDKQMSRDEHRARAMKIPFTNDKIINLPVEEFNELLSKYQLSEAQLSLIRDIRRRGKNKMAAQNCRKRKLDTILNLERDVEDLQRDKARLLREKVEFLRSLRQMKQKVQSLYQEVFGRLRDENGRPYSPSQYALQYAGDGSVLLIPRTMADQQARRQERKPKDRRK
# B8: SOX30, O94993 (protein)
# chain: MERARPEPPPQPRPLRPAPPPLPVEGTSFWAAAMEPPPSSPTLSAAASATLASSCGEAVASGLQPAVRRLLQVKPEQVLLLPQPQAQNEEAAASSAQARLLQFRPDLRLLQPPTASDGATSRPELHPVQPLALHVKAKKQKLGPSLDQSVGPRGAVETGPRASRVVKLEGPGPALGYFRGDEKGKLEAEEVMRDSMQGGAGKSPAAIREGVIKTEEPERLLEDCRLGAEPASNGLVHGSAEVILAPTSGAFGPHQQDLRIPLTLHTVPPGARIQFQGAPPSELIRLTKVPLTPVPTKMQSLLEPSVKIETKDVPLTVLPSDAGIPDTPFSKDRNGHVKRPMNAFMVWARIHRPALAKANPAANNAEISVQLGLEWNKLSEEQKKPYYDEAQKIKEKHREEFPGWVYQPRPGKRKRFPLSVSNVFSGTTQNIISTNPTTVYPYRSPTYSVVIPSLQNPITHPVGETSPAIQLPTPAVQSPSPVTLFQPSVSSAAQVAVQDPSLPVYPALPPQRFTGPSQTDTHQLHSEATHTVKQPTPVSLESANRISSSASTAHARFATSTIQPPREYSSVSPCPRSAPIPQASPIPHPHVYQPPPLGHPATLFGTPPRFSFHHPYFLPGPHYFPSSTCPYSRPPFGYGNFPSSMPECLSYYEDRYPKHEGIFSTLNRDYSFRDYSSECTHSENSRSCENMNGTSYYNSHSHSGEENLNPVPQLDIGTLENVFTAPTSTPSSIQQVNVTDSDEEEEEKVLRDL
# B9: HR, O43593 (protein)
# chain: MESTPSFLKGTPTWEKTAPENGIVRQEPGSPPRDGLHHGPLCLGEPAPFWRGVLSTPDSWLPPGFPQGPKDMLPLVEGEGPQNGERKVNWLGSKEGLRWKEAMLTHPLAFCGPACPPRCGPLMPEHSGGHLKSDPVAFRPWHCPFLLETKILERAPFWVPTCLPPYLVSGLPPEHPCDWPLTPHPWVYSGGQPKVPSAFSLGSKGFYYKDPSIPRLAKEPLAAAEPGLFGLNSGGHLQRAGEAERPSLHQRDGEMGAGRQQNPCPLFLGQPDTVPWTSWPACPPGLVHTLGNVWAGPGDGNLGYQLGPPATPRCPSPEPPVTQRGCCSSYPPTKGGGLGPCGKCQEGLEGGASGASEPSEEVNKASGPRACPPSHHTKLKKTWLTRHSEQFECPRGCPEVEERPVARLRALKRAGSPEVQGAMGSPAPKRPPDPFPGTAEQGAGGWQEVRDTSIGNKDVDSGQHDEQKGPQDGQASLQDPGLQDIPCLALPAKLAQCQSCAQAAGEGGGHACHSQQVRRSPLGGELQQEEDTATNSSSEEGPGSGPDSRLSTGLAKHLLSGLGDRLCRLLRREREALAWAQREGQGPAVTEDSPGIPRCCSRCHHGLFNTHWRCPRCSHRLCVACGRVAGTGRAREKAGFQEQSAEECTQEAGHAACSLMLTQFVSSQALAELSTAMHQVWVKFDIRGHCPCQADARVWAPGDAGQQKESTQKTPPTPQPSCNGDTHRTKSIKEETPDSAETPAEDRAGRGPLPCPSLCELLASTAVKLCLGHERIHMAFAPVTPALPSDDRITNILDSIIAQVVERKIQEKALGPGLRAGPGLRKGLGLPLSPVRPRLPPPGALLWLQEPQPCPRRGFHLFQEHWRQGQPVLVSGIQRTLQGNLWGTEALGALGGQVQALSPLGPPQPSSLGSTTFWEGFSWPELRPKSDEGSVLLLHRALGDEDTSRVENLAASLPLPEYCALHGKLNLASYLPPGLALRPLEPQLWAAYGVSPHRGHLGTKNLCVEVADLVSILVHADTPLPAWHRAQKDFLSGLDGEGLWSPGSQVSTVWHVFRAQDAQRIRRFLQMVCPAGAGALEPGAPGSCYLDAGLRRRLREEWGVSCWTLLQAPGEAVLVPAGAPHQVQGLVSTVSVTQHFLSPETSALSAQLCHQGPSLPPDCHLLYAQMDWAVFQAVKVAVGTLQEAK
# Molecular target: nucleoprotein N of Crimean-Congo hemorrhagic fever virus
# Assay: AlphaScreen luminescence signal relative to Venus negative control (fold); higher = stronger binding to CCHFV N
# Protocol: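 AlphaScreen binding of cell-free made, FLAG-GST-tagged human transcription factors and regulators (crude translation products) to biotinylated N protein; signal as fold of the FLAG-GST-Venus control. One pass.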
row,Binder,AlphaScreen luminescence signal
1,B1,2
2,B2,2.79
3,B3,2.42
4,B4,2.37
5,B5,1.58
6,B6,3.53
7,B7,4.42
8,B8,2.6
9,B9,2.05
